Data on 57 sequences can be found in the supplement of paper PMC11417369.

The other results are listed elsewhere or left out.

In this experiment the test system is PfSIP2 AP2 domain 1 (GST-tagged). Nature of the experiment: gcPBM binding intensity (ln(normalized median fluorescence intensity)); higher = stronger DNA binding. An outline of the steps:
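GST-tagged P. falciparum DNA-binding domains, expressed in E. coli (about 25 μg on average), were applied for 1 h to an Agilent 4 × 180k array of primer-extended double-stranded 36-bp intergenic genomic probes plus negative controls. The binding buffer was 1× PBS with 1% milk, 0.2 mg/ml BSA, 0.5% salmon testes DNA and 0.03% Triton X-100. Bound protein was detected with Alexa488 anti-GST antibody and scanned at 488 nm. Binding intensity is the highest Masliner-normalised natural-log median intensity across replicate spots of either probe orientation.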
In the case of “TTTCTTTAATATATAGTGCATGTAAATTTTACAATA [GTGCAC_site9679]”, the “gcPBM binding intensity (ln)” value worked out at 9.42.
Take “AAAAAAAAAAACAGTTGTACATTTATTTATATATTA [XGTACX_site217]”: the “gcPBM binding intensity (ln)” value turned out to be 6.96.
To “AAAATAAGGACTGTTGTGCACTGGATTTGTGGTTAC [GTGCAC_site9830]” belongs 10.1.
To “AATTAATATTTAAATTGTACATGAACATTTTAATGT [XGTACX_site462]” belongs 6.93; to “TAAATATTATTTATATGTACTGATATATTAAATAAA [XGTACX_site3446]”, 6.74; to “AAAATAAAATTTACTTGTACTAAAGGGATACGCGCA [XGTACX_site1453]”, 6.59.
To “GTCACAAAATAAATTAAACACACAACATCATATATG [CACACA_site8182]” belongs 7.11.
Turning to “AATATAAATTTATATTGTACATATTTTATTATATGT [XGTACX_site905]”, the “gcPBM binding intensity (ln)” value was 7.2.
Turning to “GTGTATCAATATGTAGGTACGTAAATATAGATAATA [XGTACX_site5526]”, the “gcPBM binding intensity (ln)” value is 7.1.
Take TAATATAATATATAGGTGCAATATTAACAAAAATTT: the “gcPBM binding intensity (ln)” value is 9.61.
To “ATTAATATGAATAAATGTACAAATGAATGATTACAT [XGTACX_site6044]” belongs 6.78; to “ATAATGTGTTAGGCGTGTACACAATTGTATGGTTTA [XGTACX_site2377]”, 7.42; to “AAATAAAATCATAATGTGCGCATATAAATTTGTAGG [GTGCAC_site9662]”, 7.63.
To “ATATATATATATGAAAGTACACATCTATTTTTTCTT [XGTACX_site6059]” belongs 9.32; to “AAGGTAGATATATTTAGTACGTAATTTTTTTTTTTT [XGTACX_site7288]”, 6.87.
Regarding “GTAAAAAAAGAGCACACACACAAAAACACCCACAAA [CACACA_site1292]”, the “gcPBM binding intensity (ln)” value worked out at 7.34.
To “TTTATTCCCGCATATAGTACATATACCATTTAATGT [XGTACX_site7011]” belongs 7.16; to “AATATTTAAGTACTGGTGCGTGTATATAATGATTAA [GTGCAC_site9633]”, 8.44; to “ATAAATAAAATATGCACACAAATATAGGAAACAACA [CACACA_site2561]”, 8.26.
In the case of “AAACTTGTAAGAAACACACACACACGCATATAAATA [CACACA_site6518]”, the “gcPBM binding intensity (ln)” value came to 6.98.
The figure for “CATAAATACACTGTAGCGCACACGGCCAAAAAAAAA [CACACA_site8537]” is 7.16; for “ATATAATATGGTATTACACACTGTTATAAGTATGGC [CACACA_site2094]” it is 6.93.
Regarding “TTAAATAAAATTTATTGTACATAAAATTAAATATAG [XGTACX_site3039]”, the “gcPBM binding intensity (ln)” value turned out to be 7.09.
To “CATAATTTACATAAAAGTACATATATATTAATGACG [XGTACX_site6247]” belongs 7.02; to “AGAAGCATACATCAAGCACACACACCCACACCCACA [CACACA_site8014]”, 6.9.
The figure for “TCCTTTTCTTAATTTAAAAAATATAAAAAAAACGAA [CACACA_negctrl_site1821]” is 7.19; for “ACACGTTTATATAAAAAATTAAAATTTTTCTTATTT [CACACA_negctrl_site1523]” it is 7.21; for “ATAACAAAATAAAACACACACACAAATGTACAGATA [CACACA_site5358]” it is 7.06.
To “ATTTTTGTGTTTACACGTACGTGTAAATTATTTTTC [XGTACX_site1869]” belongs 6.96; to “TATTCATGTTTAAAAAGTACATATTATGGTAACATT [XGTACX_site4533]”, 7.06; to “AAAAGGGATAAATGTGCGCACATGTTATATATATAT [GTGCAC_site9534]”, 9.41.
Consider “ACATATCTACACAGTGGTACTTCCATTAATATATAC [XGTACX_site3827]”, for which the “gcPBM binding intensity (ln)” value was 7.24.
The figure for “TCATAAATTAAACAAACACACACGTTCTTTTATTTA [CACACA_site713]” is 6.87; for “ATTTATTCAAATGGTTGTACTACAAATAAACATTAT [XGTACX_site3378]” it is 7.15.
To “AACAATGTTGTACATACACACACACTAATAAAAAAT [CACACA_site8758]” belongs 7.22; to “AATACATACAGACACACACACACATATAAATAAATA [CACACA_site7642]”, 7.37; to “GCTCATTGAAGTTATACACACCAAATATGTAAATAT [CACACA_site7217]”, 7.08.
On to “TATAATATTAATGACTGTACTCATACGTATATTTAT [XGTACX_site5493]”, for which the “gcPBM binding intensity (ln)” value was 7.03.
The figure for “TTTAATTTATATTTTGTGCACATCTTATTATATATA [GTGCAC_site9630]” is 9.58.
“AATTTTGTTTAGCACACACACATACATACATACATA [CACACA_site5707]”: the “gcPBM binding intensity (ln)” value worked out at 7.34.
Regarding “CCCATTTTGACAAAAAGTACAAGTTCAGGTTTTATA [XGTACX_site1532]”, the “gcPBM binding intensity (ln)” value is 6.93.
To “AAAAATTAAAATATTATAGTTGAAACTTTTATAAAT [TGCATGCA_negctrl_site454]” belongs 6.55; to “TTTCTCTTCTAAACATGTACAAAAATACATACATAT [XGTACX_site1365]”, 7.39; to “TATATTTATTCCTGTTGTACTTTATATTATTTTTTT [XGTACX_site1415]”, 7.17.
The figure for “ATATATATATATATATGTACATACATACATAGAACT [XGTACX_site2214]” is 9.69; for “TCCCATTTATTATGGTGTACAATTAATTAAACATAA [XGTACX_site750]” it is 7.16.
To “ACATATTAATTATTATGACATACATATCAGTTATTA [TGCATGCA_negctrl_site126]” belongs 6.92.
On to “TATATTATTTTATATTGTACATACCAAATATTATAT [XGTACX_site1693]”, for which the “gcPBM binding intensity (ln)” value amounted to 7.11.
Consider “CATGTGATAATGATTAGTACATAAACAAAAATATAT [XGTACX_site5866]”, for which the “gcPBM binding intensity (ln)” value came to 7.09.
Regarding “AGAAAAATAAACAAATGTACAAATTATTACTATATA [XGTACX_site1087]”, the “gcPBM binding intensity (ln)” value was 6.8.
On to “TAAAATATAGAAAATTTTATTAAATATAAAAAAATA [CACACA_negctrl_site1441]”, for which the “gcPBM binding intensity (ln)” value is 6.61.
To “ATTAAATAAAAAAACACACACATATATACATATATA [CACACA_site3445]” belongs 6.88; to “CATAATAATAGAAACACACACACATAGACATATATA [CACACA_site1308]”, 7.05.
As for “CATATATAACCTATAGCACACATATATAATATATAT [CACACA_site8544]”, the “gcPBM binding intensity (ln)” value came out at 7.34.
As to “TTATATAAACACCAACGTACGTTCATTTAACATAAC [XGTACX_site5250]”, the “gcPBM binding intensity (ln)” value was found to be 7.19.
Consider “TATATATATATATATTGTACATATGTGGTATAAATG [XGTACX_site6108]”, for which the “gcPBM binding intensity (ln)” value amounted to 9.24.
As to “GCATATCTATTTTCACGTACACAAACATGTATATAT [XGTACX_site3722]”, the “gcPBM binding intensity (ln)” value amounted to 7.53.
